This passage reports phenotypic hit results from the supplement of paper PMC2702839.

The structures appear in SMILES notation. Counter-ions that a name gives are not always drawn. The list shows a part of the results.

The subject of the test is Schistosoma mansoni schistosomula. The test can be described thus: phenotypic hit in primary schistosomula screen (any phenotype vs DMSO control) (binary (1 = hit, 0 = no phenotype)); higher = active (phenotype induced). The conditions noted are these: 1 µM; time (d): 7.
For the compound `O=C(Oc1ccccc1C(=O)O)c1ccccc1O` [salsalate], the phenotypic hit is inactive: 0.

For the compound `O=C(O)c1ccc(S(=O)(=O)N(Cl)Cl)cc1` [halazone], the phenotypic hit is inactive: 0.

`COc1c(C)c2c(c(O)c1C/C=C(\C)CCC(=O)O)C(=O)OC2` [mycophenolic acid]: the phenotypic hit was inactive: 0.

As for `CC(C)c1ccc2c(c1)CC[C@H]1[C@](C)(CN)CCC[C@]21C` [18-aminoabieta-8,11,13-triene sulfate], the phenotypic hit is inactive: 0.

Take `CCN1CCCC(OC(=O)C(c2ccccc2)c2ccccc2)C1` (stereo not drawn) [piperidolate hydrochloride]: the phenotypic hit was inactive: 0.

For the compound `Nc1ccc(C(=O)O)cc1` [potassium p-aminobenzoate], the phenotypic hit is inactive: 0.

Turning to `CCCCCC(=O)O[C@]1(C(C)=O)CC[C@H]2[C@@H]3CCC4=CC(=O)CC[C@]4(C)[C@H]3CC[C@@]21C` [hydroxyprogesterone caproate], the phenotypic hit was inactive: 0.

Regarding `NC[C@@H](O)c1ccc(O)c(O)c1` [L(-)-Norepinephrine bitartrate], the phenotypic hit is inactive: 0.

With `CC1(C)OC(=O)C[C@H](O)[C@]2(C)[C@H]3CC[C@@]4(C)[C@H](c5ccoc5)OC(=O)[C@H]5O[C@]54[C@]3(C)C(=O)C[C@@H]12` [deacetylnomilin], the phenotypic hit was inactive: 0.

With `O=C(O[C@@H]1Cc2c(O)cc(O)cc2O[C@@H]1c1ccc(O)c(O)c1)c1cc(O)c(O)c(O)c1` [epicatechin monogallate], the phenotypic hit is inactive: 0.

For the compound `OC(c1cc(C(F)(F)F)nc2c(C(F)(F)F)cccc12)C1CCCCN1` (stereo not drawn) [mefloquine], the phenotypic hit is inactive: 0.

With `CNCCCC12CCC(c3ccccc31)c1ccccc12` [maprotiline hydrochloride], the phenotypic hit is inactive: 0.

For the compound `CC1(C)O[C@@H]2C[C@H]3[C@@H]4CCC5=CC(=O)CC[C@]5(C)[C@@]4(F)[C@@H](O)C[C@]3(C)[C@]2(C(=O)CCl)O1` [halcinonide], the phenotypic hit is inactive: 0.

Consider `C[C@]12C=CC(=O)C=C1CC[C@H]1[C@@H]3C[C@@H](O)[C@](O)(C(=O)CO)[C@@]3(C)C[C@H](O)[C@@]12F` [triamcinolone], for which the phenotypic hit is inactive: 0.

`NC(N)=NCCC[C@H](NC(=O)[C@@H](N)Cc1ccc(O)cc1)C(=O)O` [kyotorphin acetate]: the phenotypic hit is inactive: 0.

Take `Cc1cc(C)cc(OCC2CNC(=O)O2)c1` (stereo not drawn) [metaxalone]: the phenotypic hit is inactive: 0.

Turning to `COc1ccc(C(=O)O)c(O)c1OC` [2-hydroxy-3,4-dimethoxybenzoic acid], the phenotypic hit was inactive: 0.

On to `CCN(CC)CCOC(=O)c1ccc(N)cc1` [procaine hydrochloride], for which the phenotypic hit was inactive: 0.

For `CN=C(N)NCCCC(N)C(=O)O` (stereo not drawn) [ng-methyl-l-arginine acetate], the phenotypic hit is inactive: 0.

In the case of `CC(=O)O[C@@H]1CC2C(C)(C)C=CC(=O)[C@]2(C)C2CC[C@@]3(C)[C@H](c4ccoc4)OC(=O)C4OC43[C@@]21C` (stereo partly drawn) [isogedunin], the phenotypic hit is inactive: 0.

As to `CC(=O)N[C@@H](CS)C(=O)O` [L-Cysteine, N-Acetyl-], the phenotypic hit was inactive: 0.

For `CC(=O)O[C@H]1C[C@@]2(C)[C@@H](C[C@@H](O)[C@H]3[C@@]4(C)CC[C@@H](O)[C@@H](C)[C@@H]4CC[C@@]32C)/C1=C(\CCC=C(C)C)C(=O)O` [fusidic acid], the phenotypic hit is inactive: 0.

Take `COc1cccc(-c2cc(=O)c3cc(OC)ccc3o2)c1` [6,3'-dimethoxyflavone]: the phenotypic hit is inactive: 0.

Turning to `COc1cc(OC)c2c(c1)O[C@H](c1cc(OC)c(OC)c(OC)c1)[C@H](OC(=O)c1cc(OC)c(OC)c(OC)c1)C2` [epigallocatechin octamethyl ether], the phenotypic hit was inactive: 0.

In the case of `O=c1cc(-c2ccccc2)oc2cc(O)c(O)c(O)c12` [baicalein], the phenotypic hit was inactive: 0.

Consider `Nc1ccc(S(=O)(=O)Nc2cnc3ccccc3n2)cc1` [sulfaquinoxaline sodium], for which the phenotypic hit is inactive: 0.

`O=C(O)CN(CC(=O)O)Cc1cc2c(cc1O)Oc1cc(O)c(CN(CC(=O)O)CC(=O)O)cc1C21OC(=O)c2ccccc21` [calcein]: the phenotypic hit was inactive: 0.

Turning to `COc1ccc(C[C@H](N)C(=O)N[C@H]2[C@@H](O)[C@H](n3cnc4c(N(C)C)ncnc43)O[C@@H]2CO)cc1` [puromycin hydrochloride], the phenotypic hit was inactive: 0.

In the case of `Cc1ccnc(NS(=O)(=O)c2ccc(N)cc2)n1` [sulfamerazine], the phenotypic hit was inactive: 0.

As for `CC(=O)Oc1cc2c(c(C)c1OC(C)=O)CC=C1[C@@]2(C)CC[C@@]2(C)C3C[C@](C)(C(=O)O)CC[C@]3(C)CC[C@]12C` (stereo partly drawn) [dihydrocelastryl diacetate], the phenotypic hit is active: 1.

For `CCCCNc1cc(C(=O)O)cc(S(N)(=O)=O)c1Oc1ccccc1` [bumetanide], the phenotypic hit was inactive: 0.

Turning to `COc1c(C(C)C)oc2cc3oc(=O)ccc3cc12` [peucedanin], the phenotypic hit is inactive: 0.

Regarding `N[C@H](C(=O)O)[C@@H]1CC(Cl)=NO1` [acivicin], the phenotypic hit is inactive: 0.

Regarding `CC(=O)Oc1ccccc1C(=O)Oc1ccccc1C(=O)O` [diplosalsalate], the phenotypic hit was inactive: 0.

For the compound `COc1ccc2cc([C@H](C)CO)ccc2c1` [naproxol], the phenotypic hit is inactive: 0.

For the compound `CC(=O)O[C@]1(C(C)=O)CC[C@H]2[C@@H]3C=C(Cl)C4=CC(=O)[C@@H]5C[C@@H]5[C@]4(C)[C@H]3CC[C@@]21C` [cyproterone acetate], the phenotypic hit was inactive: 0.

Consider `N[C@@H]1CONC1=O` [D-Cycloserine], for which the phenotypic hit was inactive: 0.

Take `O=C(O)Cc1nn(Cc2ccc(Br)cc2F)c(=O)c2ccccc12` [statil]: the phenotypic hit was inactive: 0.

With `O=C(O)/C=C/c1ccc(O)c(O)c1` [caffeic acid], the phenotypic hit was inactive: 0.

For the compound `CC(=O)O[C@H]1CC[C@@]2(C)C(=CC(=O)[C@H]3[C@@H]4CC[C@H]([C@H](C)CCCC(C)C)[C@@]4(C)CC[C@@H]32)C1` [7-oxocholesteryl acetate], the phenotypic hit is inactive: 0.

Take `CC1=C(/C=C/C(C)=C/C=C/C(C)=C/C=C/C=C(C)/C=C/C=C(C)/C=C/C2=C(C)C(=O)[C@@H](O)CC2(C)C)C(C)(C)C[C@H](O)C1=O` [astaxanthin]: the phenotypic hit is inactive: 0.

In the case of `CC(=O)Oc1ccccc1C(=O)O` [aspirin], the phenotypic hit is inactive: 0.

Take `N=C(N)NS(=O)(=O)c1ccc(N)cc1` [sulfaguanidine]: the phenotypic hit was inactive: 0.
